# Measurements reported in ChEMBL document CHEMBL4888484, “Replenishing the malaria drug discovery pipeline: Screening and hit evaluation of the MMV Hit Generation Library 1 (HGL1) against asexual blood stage Plasmodium falciparum ,using a nano luciferase reporter read-out” (2022).
# In all, about 150,000 compounds went through this assay and about 540 (0.36%) showed an effect of 50% or more. Some of the results follow.
# System: Plasmodium falciparum
# Experiment: Primary screen in NF54 nanoGlo assay, in single point, at 2uM, 72h; a lower Z score goes with more inhibition
# Format: functional, Erythrocyte
# Conditions: timepoint 72 hour
SMILES,% Inhibition [%],Z score
Cc1nc(C(C)C)ncc1C(=O)N1CCC(Oc2cccc(F)c2)CC1,-6,0.73
O=C([C@H](Cc1ccccc1)NC1Cc2ccccc2C1)N1CCOCC1,-12,1.71
O=C(NCCN1CCN(c2ccccc2)CC1)N[C@H]1CC(=O)N(c2cccc(F)c2)C1,30,-3.79
Cc1ccc(CN(C)C(=O)Nc2ccc3c(c2)CCC3)nc1,-1,0.14
O=C(C[C@@H]1COC2(C1)CN(S(=O)(=O)c1ccc(Cl)s1)C2)N1CCOCC1,-5,0.83
Cc1ccc2c(n1)N(C)[C@H](CO)CCN(Cc1ccc3c(c1)OCO3)C2,1,-0.18
Cc1[nH]nc(O)c1[C@@H](CC(N)=O)c1ccco1,-7,1.03
Cc1noc(C)c1C(=O)N1CCc2nn(C)c(=O)n2CC1,-8,1.53
Cc1nc(C(C)C)nc(NCCNC(=O)N(C)C)c1Br,-1,0.1
CCN1CCN(CCCN2CC3(CCN(c4ccnc(C)n4)CC3)OC2=O)CC1,-9,1.72
O=C(NCc1ccco1)N1CCC[C@H]1c1ccc2c(c1)OCCO2,1,-0.25
Cc1nnc2ncc(-c3ccc(OC(C)C)cc3)cn12,6,-0.89
COc1cccc(NC(=O)Nc2c(-c3ccncc3)[nH]c3c(Cl)cccc23)c1,-2,0.37
OC[C@]12CN(Cc3ccncc3F)CC[C@H]1CN(Cc1ccccc1)C2,-6,0.81
CCN(Cc1ccccc1)c1ccc(NC(=O)c2ccc(Br)cc2)cc1C(=O)O,0,-0.06
CCc1ccc(-c2cc(C(F)(F)F)on2)cc1S(=O)(=O)Nc1cccc(C)c1C,-1,0.11
Cc1nc2cc(CNC(=O)[C@H]3CCc4cn[nH]c4C3)ccc2n1C1CC1,-19,2.6
Cc1ccc(S(=O)(=O)N2C3CCC2CC(N2C(=O)CCC2=O)C3)s1 (stereo not drawn),-5,0.81
O=S(=O)(CCCCF)Nc1cc(C(F)(F)F)c(F)cc1O,-6,0.92
CCC[C@H](C)NS(=O)(=O)c1cccc(F)c1,4,-0.51
C[C@@H](C(=O)Nc1ccc2c(c1)C(=O)N(CC1CC1)C2=O)n1ccnc1,1,-0.08
O=C(CC[C@H]1CCCOC1)Nc1ccc(-c2ccccc2)cn1,-6,1.17
Cn1nc(CCNC(=O)N[C@H]2CC[C@H](CO)CC2)c2ccccc21,-14,1.39
Cc1cnccc1OC1CCN(C(=O)[C@@H](C)Cc2c(C)nn(C)c2C)CC1,-8,1.17
CCOc1ccc(CN[C@H]2CS(=O)(=O)C[C@@H]2O)cc1F,-3,0.61
COCC(=O)Nc1cc(C(=O)N2CCC[C@H](C(N)=O)C2)c2c(c1)ncn2CCc1ccccc1,2,-0.34
CN(CC#N)S(=O)(=O)Cc1cccc(F)c1,7,-0.79

SMILES,% Inhibition [%],Z score
CCCCOc1cccc(NCC(=O)NC(=O)NCC)c1,-11,1.21
Cc1cc(CN(C)Cc2cnc3ccc(Br)cn23)no1,26,-2.61
CCC(CC)S(=O)(=O)NC(=O)c1nc(C)n2ccccc12,-7,0.61
Cc1nc(C)c(CC(=O)Nc2ccc3c(c2)OCO3)c(=O)[nH]1,4,-0.51
O=C(Nc1ccc(F)cc1F)N[C@@H]1[C@@H]2CCO[C@@H]2[C@H]1N1CCCCC1,17,-2.26
c1ccc(CC[C@@H]2NCCc3ccccc32)cc1,-17,2.22
N#C[C@@H](NC(=O)c1cc[nH]n1)c1ccc(OCc2ccccc2)cc1,29,-3.61
CC1(F)CCN(C(=O)NCC2CC23CC3)C1 (stereo not drawn),-2,0.36
CCN(C(=O)c1cccc2c1OCC2)[C@H]1CCS(=O)(=O)C1,-5,0.86
Cc1ccc2c(c1)c(=O)n(-c1ccccc1Cl)c(=O)n2CC(=O)N1CCCC1,-17,1.9
O=C(c1ccsc1)N1CCCc2ccccc21,-3,0.35
Cc1cccc(NC(=O)CC(=O)N(C)CCCO)c1C,3,-0.4
CCCn1cc(CN2C[C@@H](CO)[C@H](NC(C)=O)C2)c2ccccc21,-13,2.2
CCc1c[nH]c2ncnc(NCCc3cnc4c(Cl)cnn4c3)c12,-20,2.76
CC(C)c1nnc(NC(=O)c2ccc3ccccc3n2)s1,-5,0.72
Cc1oc(-c2cccc(F)c2F)nc1CN(C)Cc1nc2ccc(F)cc2[nH]1,-5,0.69
CC(C)N1C[C@H](Oc2ccccc2)[C@@H]1C1CCN(C(=O)c2ccc3ncccc3c2)CC1,-18,2.08
CC1(C)COc2ccc(C(=O)N3CC[C@](C)(O)C3)cc21,-4,0.71
Cc1nc(-c2ccc(OC(=O)[C@H]3CCCN(C(N)=O)C3)cc2)cs1,-7,0.86
Cc1nc(CC(N)=NOCC(=O)NC2CCCCCC2)cs1,31,-3.48
COc1ccccc1N1CCN([C@H]2CN(C(=O)C(C)(C)C)C[C@@H]2O)CC1,1,-0.14
Cc1nc(CC(=O)N(C)c2ccccc2)cs1,-4,0.75
O=C(Nc1ccc(O)c(C(F)(F)F)c1)c1cccc(-n2ccnc2)n1,-5,0.55
COc1ccc(CN(C)Cc2cnn(C)c2C)c(OC[C@@H](O)CN2CCCC2)c1,-2,0.26
CC1CCC(OCC(=O)NC[C@@H]2C[C@@H](OC(=O)COC3CCC(C)CC3)CN2C)CC1 (stereo partly drawn),-12,1.35
CCOC1(c2nc(CCNC(C)=O)no2)CCCC1,-12,2.38
Cc1cc(CN2CCc3[nH]cnc3[C@@H]2c2cccn2-c2nccs2)on1,-11,1.07
